A collection of fitness landscapes (doi:10.1016/j.celrep.2020.107928)
Whole data set: some 81,000 sequences, median “one-hybrid fitness for binding parS DNA” near -0.17, cut for the highest 2% near 0.51. Some of the results follow.

B1: Caulobacter ParB omega fusion; a variant is named by its letters at X, in order, B8GW30 (parent)
chain: MESVVVGEPGMSEGRRGLGRGLSALLGEVDAAPAQAPGEQLGGSREAPIEILQRNPDQPRRTFREEDLEDLSNSIREKGVLQPILVRPSPDTAGEYQIVAGERAWRAAQRAGLKTVPIMVRELDDLAVLEIGIIENVQRADLNVLEEALSYKVLMEKFERTQENIAQTIGKSXSHVANXMRLLXLPDEVQSYLVSGELTAXHARAIAAAADPVALAKQIIEGGLSVRETEALARKAPNLSAGKSKGGRPPRVKDTDTQALESDLSSVLGLDVSIDHRGSTGTLTITYATLEQLDDLCNRLTRGI

Variants of: B1
Experiment: one-hybrid fitness for binding parS DNA (scaled: cognate 1, non-cognate 0); higher = stronger binding
Settings: with parS DNA site
How it was run: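 Pre- and post-selection plasmids were Illumina-sequenced, three replicate libraries were pooled, and any variant with under 10 reads was removed. The libraries were Caulobacter ParB with four specificity codons randomised, selected in E. coli USO through a HIS3 reporter whose site is 19 bp from the promoter. Cells grew 48 hours at 37°C on M9 without histidine, with 0.1 mM IPTG and 5 mM 3-AT. Fitness is the log change in variant-to-wild-type read ratio, rescaled against cognate and non-cognate.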

YGYI and ESKN cannot be ordered by “one-hybrid fitness for binding parS DNA” value: ≤ 0.2 for the first, ≤ 0.2 for the second.

AVHT and KGDK cannot be ordered by “one-hybrid fitness for binding parS DNA” value: ≤ 0.2 for the first, ≤ 0.2 for the second.

MSWT and VTRN cannot be ordered by “one-hybrid fitness for binding parS DNA” value: ≤ 0.2 for the first, ≤ 0.2 for the second.

WTNR and EEYG cannot be ordered by “one-hybrid fitness for binding parS DNA” value: ≤ 0.2 for the first, ≤ 0.2 for the second.

PTSC and RGEI cannot be ordered by “one-hybrid fitness for binding parS DNA” value: ≤ 0.2 for the first, ≤ 0.2 for the second.

CPQL and QLSQ cannot be ordered by “one-hybrid fitness for binding parS DNA” value: ≤ 0.2 for the first, ≤ 0.2 for the second.

CSNF and TDVL cannot be ordered by “one-hybrid fitness for binding parS DNA” value: ≤ 0.2 for the first, ≤ 0.2 for the second.

ERIG and QTAE cannot be ordered by “one-hybrid fitness for binding parS DNA” value: ≤ 0.2 for the first, ≤ 0.2 for the second.

RNVF and IMKE cannot be ordered by “one-hybrid fitness for binding parS DNA” value: ≤ 0.2 for the first, ≤ 0.2 for the second.

QCPM and PDPW cannot be ordered by “one-hybrid fitness for binding parS DNA” value: ≤ 0.2 for the first, ≤ 0.2 for the second.

GVPF and INKK cannot be ordered by “one-hybrid fitness for binding parS DNA” value: ≤ 0.2 for the first, ≤ 0.2 for the second.

LQFA and QVWT cannot be ordered by “one-hybrid fitness for binding parS DNA” value: ≤ 0.2 for the first, ≤ 0.2 for the second.

CSYT and GYPG cannot be ordered by “one-hybrid fitness for binding parS DNA” value: ≤ 0.2 for the first, ≤ 0.2 for the second.

WITS and ACTV cannot be ordered by “one-hybrid fitness for binding parS DNA” value: ≤ 0.2 for the first, ≤ 0.2 for the second.

WPWS and PQVF cannot be ordered by “one-hybrid fitness for binding parS DNA” value: ≤ 0.2 for the first, ≤ 0.2 for the second.

LTMI and QLLL cannot be ordered by “one-hybrid fitness for binding parS DNA” value: ≤ 0.2 for the first, ≤ 0.2 for the second.

MTLN and CQTC cannot be ordered by “one-hybrid fitness for binding parS DNA” value: ≤ 0.2 for the first, ≤ 0.2 for the second.

PCAT and RPND cannot be ordered by “one-hybrid fitness for binding parS DNA” value: ≤ 0.2 for the first, ≤ 0.2 for the second.

AISY and AWSN cannot be ordered by “one-hybrid fitness for binding parS DNA” value: ≤ 0.2 for the first, ≤ 0.2 for the second.

RLPI and STVV cannot be ordered by “one-hybrid fitness for binding parS DNA” value: ≤ 0.2 for the first, ≤ 0.2 for the second.

QQME and NYAT cannot be ordered by “one-hybrid fitness for binding parS DNA” value: ≤ 0.2 for the first, ≤ 0.2 for the second.

Going from RTKN to QYQP, the “one-hybrid fitness for binding parS DNA” value falls from 0.441 to ≤ 0.2.

HKPL and YREC cannot be ordered by “one-hybrid fitness for binding parS DNA” value: ≤ 0.2 for the first, ≤ 0.2 for the second.

RKSP and RSSV cannot be ordered by “one-hybrid fitness for binding parS DNA” value: ≤ 0.2 for the first, ≤ 0.2 for the second.

DTKC and QAPH cannot be ordered by “one-hybrid fitness for binding parS DNA” value: ≤ 0.2 for the first, ≤ 0.2 for the second.

FVDC and PWCS cannot be ordered by “one-hybrid fitness for binding parS DNA” value: ≤ 0.2 for the first, ≤ 0.2 for the second.

HVDS and KANC cannot be ordered by “one-hybrid fitness for binding parS DNA” value: ≤ 0.2 for the first, ≤ 0.2 for the second.

VDDG and TGTN cannot be ordered by “one-hybrid fitness for binding parS DNA” value: ≤ 0.2 for the first, ≤ 0.2 for the second.

DWTH and PWDC cannot be ordered by “one-hybrid fitness for binding parS DNA” value: ≤ 0.2 for the first, ≤ 0.2 for the second.

YYSG and AWRG cannot be ordered by “one-hybrid fitness for binding parS DNA” value: ≤ 0.2 for the first, ≤ 0.2 for the second.

RVDR and FPSC cannot be ordered by “one-hybrid fitness for binding parS DNA” value: ≤ 0.2 for the first, ≤ 0.2 for the second.

TPHP and AQST cannot be ordered by “one-hybrid fitness for binding parS DNA” value: ≤ 0.2 for the first, ≤ 0.2 for the second.

IRRY and VQFT cannot be ordered by “one-hybrid fitness for binding parS DNA” value: ≤ 0.2 for the first, ≤ 0.2 for the second.

YMMY and SRKA cannot be ordered by “one-hybrid fitness for binding parS DNA” value: ≤ 0.2 for the first, ≤ 0.2 for the second.

FNQG and TENG cannot be ordered by “one-hybrid fitness for binding parS DNA” value: ≤ 0.2 for the first, ≤ 0.2 for the second.

FMAT and ANKD cannot be ordered by “one-hybrid fitness for binding parS DNA” value: ≤ 0.2 for the first, ≤ 0.2 for the second.

VGPD and FWPA cannot be ordered by “one-hybrid fitness for binding parS DNA” value: ≤ 0.2 for the first, ≤ 0.2 for the second.

YSIC and CYML cannot be ordered by “one-hybrid fitness for binding parS DNA” value: ≤ 0.2 for the first, ≤ 0.2 for the second.

KPPF and LKMM cannot be ordered by “one-hybrid fitness for binding parS DNA” value: ≤ 0.2 for the first, ≤ 0.2 for the second.

NNDY and LNQC cannot be ordered by “one-hybrid fitness for binding parS DNA” value: ≤ 0.2 for the first, ≤ 0.2 for the second.

LNTI and MQQC cannot be ordered by “one-hybrid fitness for binding parS DNA” value: ≤ 0.2 for the first, ≤ 0.2 for the second.

EVQV and WDTR cannot be ordered by “one-hybrid fitness for binding parS DNA” value: ≤ 0.2 for the first, ≤ 0.2 for the second.

GTPF and YYNA cannot be ordered by “one-hybrid fitness for binding parS DNA” value: ≤ 0.2 for the first, ≤ 0.2 for the second.

GPYW and DDNC cannot be ordered by “one-hybrid fitness for binding parS DNA” value: ≤ 0.2 for the first, ≤ 0.2 for the second.

Going from HFHG to RTGF, the “one-hybrid fitness for binding parS DNA” value rises from ≤ 0.2 to 0.317.

First: MDMM
Second: ECRR
The “one-hybrid fitness for binding parS DNA” value of the first is higher: 0.298 for the first, ≤ 0.2 for the second.

HNPG and QLYM cannot be ordered by “one-hybrid fitness for binding parS DNA” value: ≤ 0.2 for the first, ≤ 0.2 for the second.

RHEP and QDAI cannot be ordered by “one-hybrid fitness for binding parS DNA” value: ≤ 0.2 for the first, ≤ 0.2 for the second.

KRYI and ACLC cannot be ordered by “one-hybrid fitness for binding parS DNA” value: ≤ 0.2 for the first, ≤ 0.2 for the second.
